Measurements reported in the supplement of paper PMC5499739.
The full ranking holds about 16,000 sequences; the median of “Z-score” is about -0.37, and the highest 2% start at about 3.2. This is one part of the list.

These sequences were tested on RBM10 RRM1-ZnF (GST-tagged construct) (assay: RNAcompete 7-mer binding Z-score; higher = stronger binding preference).
Summary of the method: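 GST-tagged RBM10 constructs (20 pmol) were mixed with a designed pool of 241 399 RNAs up to 41 nt (1.5 nmol), transcribed from microarray-derived DNA templates. Mixing was in 1 ml Hepes pH 7.8 buffer with KCl, NaCl, glycerol, DTT, BSA and glutathione Sepharose beads. Binding ran 30 min at 4°C, followed by four 2-min washes at 4°C, and bound RNA was identified by microarray hybridisation. Each heptamer motif received a one-sided Z-score for enrichment across probes containing it.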

Sequence	RNAcompete 7-mer binding Z-score
UAAUAUG	-0.123
UAUACCG	-0.542
AUGCACC	-0.6
GACUCUA	-0.642
AACUUCG	-0.665
AUCCUAA	-0.922
CGCUUAU	-0.649
GCCUAGA	-0.662
GCAACGU	-0.0837
CCUUUCG	-0.821
AGUGGUU	1.95
GGUUCCA	-0.116
GUCUGCG	-0.337
GGUUGUU	1.02
CCCGCGG	0.488
GUGACCG	0.115
GCUGAGU	0.27
CGGGUCU	0.339
CCGAAUG	-0.604
UUAUCGU	-0.535
AGCCCUC	-0.854
GCAUAAG	0.209
GUUGACU	-0.123
AGAAUCC	-0.785
GCGAAAU	-0.00246

Sequence	RNAcompete 7-mer binding Z-score
UUGAUCA	-0.412
UGUCAAA	-0.373
AGUUCCU	-0.792
GUCAGGG	2.07
UUAAAAU	-0.5
AUGCAAU	-0.175
CCGUGGC	-0.035
AGAGAAG	1.63
GGGUGGG	4.82
CAUCAUG	-0.532
UCGGCAC	-0.503
UCACUCU	-0.73
UGGCCCC	0.16
CCAACUA	-0.568
GAUCUAA	-0.344
UUCGUAU	-0.681
AUAUCAG	-0.288
GGCUCGG	0.664
GGAGCGG	4.52
CACUCAU	-0.821
GAGAAGC	0.524
UCGCAGU	-0.253
AAAACUC	-0.724
GCGGUAG	1.51
GCUACAU	-0.503

Sequence	RNAcompete 7-mer binding Z-score
GGGCACG	2.26
GAACUAC	-0.493
UCGGUCU	-0.662
UCUGUCA	-0.717
ACACGAA	-0.503
AUUGUAC	-0.467
CGGCAUU	-0.373
GAUUGGC	0.953
UGUUACC	-0.626
UCGACCA	-0.681
UAAGUGU	0.124
CCAGAUU	-0.717
UCUACAC	-0.691
UCAGCCC	-0.73
GAGUCAC	0.00729
CACCAGC	-0.571
UACGCAU	-0.448
AAUUCUA	-0.662
AAGCUUC	-0.746
ACUCGCU	-0.662
CUUCUUA	-0.672
CUUGCUC	-0.685
UAGCCUG	-0.655
UACUACG	-0.532
GACGAAA	0.228

Sequence	RNAcompete 7-mer binding Z-score
UAAGUUU	-0.558
GAUUCUG	-0.565
CGCAGGG	1.8
UUAGACA	-0.305
AGGUAGA	2.42
UAAUACC	-0.681
GAGUAAA	0.566
UCAGGGC	0.966
CUUAACA	-0.727
CUUGAGU	-0.629
AGAGUUC	-0.399
UUAGAGG	1.31
UGAAUAG	0.387
UCUGUUU	-0.617
GAAAGCA	0.527
GGGCGCC	0.339
GCACCGG	0.54
CCCUCUG	-0.6
UUCUUGC	-0.889
AGUUGCG	0.17
GCGUACG	0.228
AAUGCGC	-0.428
CGUGGUA	0.823
GAAAGGU	4.51
CCUGCUC	-0.808

Sequence	RNAcompete 7-mer binding Z-score
AGGAGGG	3.53
GCCCUAU	-0.867
CAUCUAA	-0.737
CUACACC	-0.558
CUACCUA	-0.659
GUGCGCA	0.215
GAUCCUA	-0.717
GUGAAUU	0.121
CCGACUA	-0.613
GGGUGAU	3.22
AGGAAAG	2.84
CGCACCA	-0.652
GGUACAA	1.25
AUGGGUG	4.03
GGGAUCG	1.97
GUCUCAG	-0.457
AGGAAGU	1.06
CAAAGCC	-0.863
CCCUUGA	-0.837
UUUUCAC	-0.88
AGAGUUG	0.768
CAGUGUA	0.0495
CAUCACG	-0.47
AUAGUUA	-0.321
AAAUACC	-0.795

Sequence	RNAcompete 7-mer binding Z-score
AGUUAGC	-0.181
CCGUCAA	-0.607
CUGGAGG	0.988
CGGCACA	0.0495
UAGCUCU	-0.477
AAUCCGG	-0.314
UCCUUAG	-0.785
GCGUAGU	0.082
GGCUUUU	-0.535
ACUGCGC	-0.594
GGGUCGC	1.14
GCUAGAC	-0.305
CAAUUCG	-0.591
GAAACCA	-0.272
AGGUACG	0.751
CCAAGUG	-0.259
CACAAAC	-0.626
AUGAUAC	-0.217
CGCCCGA	-0.698
CACCCAU	-0.72
UGACCUU	-0.854
GAGUAGU	0.68
ACGUACG	0.0593
AUCUUAU	-0.863
GUUUUCC	-0.681

Sequence	RNAcompete 7-mer binding Z-score
CGGGUUG	2.79
CAUCUGA	-0.756
AGACUUU	-0.873
GUAGCAC	-0.0252
ACUUAGG	0.257
CGCUACG	-0.266
ACUCCCG	-0.594
GGGACUG	2.47
GCUUUAA	-0.672
GUAUACC	-0.282
CACGAAA	-0.454
UUCUACU	-0.951
GAUAUAA	0.095
GUUAUAA	-0.266
CGUCGCU	-0.61
GUAUUGG	1.87
AACGUCA	-0.574
UUAUCUG	-0.587
UCACCCG	-0.633
UCAGUGU	-0.24
CUUAUGU	-0.763
CGGCACC	-0.334
CGAAGCA	-0.227
GUUGUGA	0.524
UGUGUUA	-0.409

Sequence	RNAcompete 7-mer binding Z-score
GAAGCGA	1.27
AUCGGGA	1.64
GAUACAC	-0.327
CCCACCG	-0.305
UAUGAAG	0.176
CUAUAUA	-0.617
AACCGUA	-0.808
AUCGAUC	-0.552
GUGCAGG	2.06
ACUAACA	-0.584
UUUACAU	-0.701
GACUCCG	-0.555
AUUUUAG	-0.617
UUAGAAG	0.283
GGGGGAG	3.22
GACCUUU	-1.03
UACUGAC	-0.428
GUGAGAA	1.13
GAGAAUG	1.61
AGUUAGU	-0.0642
UGGUAGC	1.3
AGCGGCG	1.33
UUGGAUU	0.0885
GGUACGU	0.716
AUCCAGA	-0.535

Sequence	RNAcompete 7-mer binding Z-score
AAACACG	-0.37
ACAGAGU	0.248
ACAAUUU	-0.772
UUAGCCU	-0.896
UCAUUGC	-0.847
ACCCGAG	-0.389
UUCAACU	-0.847
CACAGCU	-0.532
UGCUACC	-0.604
CAGGAAG	1.72
AAUUGUU	-0.435
ACAUUGC	-0.72
UCUUUAA	-0.847
ACCAUAG	-0.724
CGUGGCU	-0.171
AUCCUAG	-0.698
CGAUUGG	0.949
AUGCAGC	-0.106
AUCCAAA	-0.857
ACCUAGA	-0.503
CGCCCAA	-0.685
GGUAUCU	0.000789
CGGCCUG	-0.23
CGCGUUG	-0.214
AGCUGUG	0.3

Sequence	RNAcompete 7-mer binding Z-score
AAGUCCU	-0.652
GCAAUGC	-0.357
AGGUAGG	3.53
ACUCCUC	-0.75
AUGGAGC	1.55
AGAUCCA	-0.688
CAUAAGG	0.335
UUUGAUC	-0.743
UCGUGAG	0.251
ACUGUAA	-0.49
AGCCGAG	-0.256
AGUGAUU	0.000789
AACAGUG	0.332
UAUAAAA	-0.535
GAGCCCG	-0.422
UUUUCGC	-0.909
CCUAGGU	0.03
GCAUGCG	0.0138
CGCGACA	-0.509
ACUGAGA	-0.214
ACUCUUC	-0.909
UAUCCCU	-0.863
UUAAAAG	-0.233
AUAUUCU	-0.74
AUCUGGC	-0.724

Sequence	RNAcompete 7-mer binding Z-score
GGAUACG	1.91
AAAUGUU	-0.321
CCCGAAC	-0.545
CCGUCCG	-0.542
GUCAGAU	-0.197
UAACCAG	-0.386
AUCUCCC	-0.802
GCAUACA	-0.126
UGGCAUG	0.904
UUGGCAC	-0.249
GUUGUUA	0.0755
UCUGCGG	-0.136
AGCCGGA	0.095
UAUCCAG	-0.665
AACGCGC	-0.366
AAGCGAG	1.75
UCCCGAC	-0.772
CCCGUUC	-0.759
AGUUUGA	-0.396
GCUAUCC	-0.73
GGUGUCA	1.12
GCAGUCA	-0.275
CGAGAUG	0.173
UCAUGCC	-0.857
CCGCCUG	-0.464

Sequence	RNAcompete 7-mer binding Z-score
UACGAGG	0.849
ACUUUGA	-0.769
UCCUUCA	-0.756
AACAGCG	0.082
GCUAUAU	-0.516
GUUAUUU	-0.545
AGCAUCU	-0.818
GUAACGA	0.095
UGAAGUA	0.0788
GUGAGUU	0.43
UCCGUAC	-0.642
UUCUCCU	-0.789
CUGGGUG	1.83
AUAACCA	-0.746
UGGUACA	0.673
GUCGAAU	-0.23
AACGCAA	-0.197
UCUUACU	-0.746
CACAGCA	-0.542
UGUUCAU	-0.565
CAAGCAC	-0.607
CCACAGA	-0.464
UCGGACC	-0.629
GCCUCAG	-0.694
CGCGGAC	0.069

Sequence	RNAcompete 7-mer binding Z-score
CCCAGAC	-0.629
AUAGAGA	0.537
GCUCAGC	-0.415
UGGACGG	3.09
CAUACGC	-0.513
CAAGGCA	0.647
CUUGACU	-0.841
CGCGGUA	0.348
ACCCACU	-0.675
AGCACUC	-0.789
UAUCGGA	0.0268
UUAAUCU	-0.756
UAAAGAC	-0.175
CGUUAAG	-0.324
CACCUGG	-0.269
GCAGGCU	0.495
UUCAUUC	-0.639
UGCUCCA	-0.594
GGACAGA	1.32
GGCCACG	-0.126
CCGCCGA	-0.464
CGGUGGU	1.64
UUUUCCC	-0.844
CGCAUGA	-0.129
GUGCGAU	-0.0999

Sequence	RNAcompete 7-mer binding Z-score
CUGCUCA	-0.75
GGUCGUC	0.212
GCCCUGG	0.105
CUUAGCC	-0.873
AUGCUCG	-0.376
CUGGAAU	0.0625
CACUGGA	0.000789
UGUAGAU	0.166
CAGAUUG	-0.227
UGCGCAC	-0.334
CAGAGCC	-0.526
CACCACU	-0.409
UAGUCCA	-0.626
GCCUUAA	-0.759
CUGCUCG	-0.73
ACCAGCU	-0.811
ACUAACC	-0.873
AUACCCG	-0.581
UAACUAG	-0.207
UAACAUU	-0.383
GCCCGGG	0.472
GGGGUAU	3.17
ACCCAUG	-0.636
AUCGAUU	-0.565
AAAUUCG	-0.574

Sequence	RNAcompete 7-mer binding Z-score
UUUAGUG	-0.0707
AAAAAAA	-0.552
CACCCUA	-0.522
CGCUUAA	-0.776
AAUGAGA	0.316
UUCAUCA	-0.717
AAGGAGA	3.37
GUACAAA	-0.139
AAGUAGU	0.00729
AUCUAUA	-0.724
AGAUCGG	0.608
CGGGGAG	2.57
UCGCCAG	-0.353
UCGCAUA	-0.457
AAACUGA	-0.34
CUGGAAA	0.209
AGUUCCA	-0.704
